Three molecules from patent US20260347469 (published 2026) can be followed below.

First the molecules themselves.
B1: A9 (protein)
chain: [about 150 residues omitted]GGGGSGGGGSGGGGSARASPGSAASPRLREGPELSPDDPAGLLDLRQGMFAQLVAQNVLLIDGPLSWYSDPGLAGVSLTGGLSYKEDTKELVVAKAGVYYVFFQLELRRVVAGEGSGSVSLALHLQPLRSAAGAAALALTVDLPPASSEARNSAFGFQGRLLHLSAGQRLGVHLHTEARARHAWQLTQGATVLGLFRVTPEIPAGLPSPRSEGGGGSGGGGSGGGGSARASPGSAASPRLREGPELSPDDPAGLLDLRQGMFAQLVAQNVLLIDGPLSWYSDPGLAGVSLTGGLSYKEDTKELVVAKAGVYYVFFQLELRRVVAGEGSGSVSLALHLQPLRSAAGAAALALTVDLPPASSEARNSAFGFQGRLLHLSAGQRLGVHLHTEARARHAWQLTQGATVLGLFRVTPEIPAGLPSPRSEGGGGSGGGGSGGGGSARASPGSAASPRLREGPELSPDDPAGLLDLRQGMFAQLVAQNVLLIDGPLSWYSDPGLAGVSLTGGLSYKEDTKELVVAKAGVYYVFFQLELRRVVAGEGSGSVSLALHLQPLRSAAGAAALALTVDLPPASSEARNSAFGFQGRLLHLSAGQRLGVHLHTEARARHAWQLTQGATVLGLFRVTPEIPAGLPSPRSE
B2: A5 (protein)
chain: [about 200 residues omitted]GGGGSGGGGSGGGGSREGPELSPDDPAGLLDLRQGMFAQLVAQNVLLIDGPLSWYSDPGLAGVSLTGGLSYKEDTKELVVAKAGVYYVFFQLELRRVVAGEGSGSVSLALHLQPLRSAAGAAALALTVDLPPASSEARNSAFGFQGRLLHLSAGQRLGVHLHTEARARHAWQLTQGATVLGLFRVTPEIPAGLPSPRSEGGGGSGGGGSGGGGSREGPELSPDDPAGLLDLRQGMFAQLVAQNVLLIDGPLSWYSDPGLAGVSLTGGLSYKEDTKELVVAKAGVYYVFFQLELRRVVAGEGSGSVSLALHLQPLRSAAGAAALALTVDLPPASSEARNSAFGFQGRLLHLSAGQRLGVHLHTEARARHAWQLTQGATVLGLFRVTPEIPAGLPSPRSEGGGGSGGGGSGGGGS[about 150 residues omitted]
B3: A6 (protein)
chain: [about 150 residues omitted]GGGGSGGGGSGGGGSREGPELSPDDPAGLLDLRQGMFAQLVAQNVLLIDGPLSWYSDPGLAGVSLTGGLSYKEDTKELVVAKAGVYYVFFQLELRRVVAGEGSGSVSLALHLQPLRSAAGAAALALTVDLPPASSEARNSAFGFQGRLLHLSAGQRLGVHLHTEARARHAWQLTQGATVLGLFRVTPEIPAGLPSPRSEGGGGSGGGGSGGGGSREGPELSPDDPAGLLDLRQGMFAQLVAQNVLLIDGPLSWYSDPGLAGVSLTGGLSYKEDTKELVVAKAGVYYVFFQLELRRVVAGEGSGSVSLALHLQPLRSAAGAAALALTVDLPPASSEARNSAFGFQGRLLHLSAGQRLGVHLHTEARARHAWQLTQGATVLGLFRVTPEIPAGLPSPRSEGGGGSGGGGSGGGGSREGPELSPDDPAGLLDLRQGMFAQLVAQNVLLIDGPLSWYSDPGLAGVSLTGGLSYKEDTKELVVAKAGVYYVFFQLELRRVVAGEGSGSVSLALHLQPLRSAAGAAALALTVDLPPASSEARNSAFGFQGRLLHLSAGQRLGVHLHTEARARHAWQLTQGATVLGLFRVTPEIPAGLPSPRSE

This assay addresses 4-1BB-Fc (human, UniProt Q07011). In words: BLI, 24C, avidity. (In BLI a coated tip is dipped into the sample, and binding shifts an interference pattern.)
Chain of UniProt Q07011 (Q07011 24-186): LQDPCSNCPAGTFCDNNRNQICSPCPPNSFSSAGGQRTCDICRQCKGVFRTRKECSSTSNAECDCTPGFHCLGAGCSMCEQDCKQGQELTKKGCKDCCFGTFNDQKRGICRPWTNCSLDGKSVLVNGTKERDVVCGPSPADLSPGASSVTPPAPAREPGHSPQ
As to B1, the Kd was under 0.01 nM.
The molecule B2 yielded a Kd of under 0.01 nM.
Next, B3: under 0.01 nM.
